# Results published in PubChem BioAssay AID504832 (National Center for Advancing Translational Sciences (NCATS), 2011).
# Where “and” joins values, the source holds several entries; their conditions need not be identical. Identical values can stand only once. About 18,000 (5.8%) of roughly 310,000 compounds were called active. Inconclusive means that the source gave no clear call. Such entries were picked first, then a sample of the others. Calls come from the whole dose curve; as a rule, active = well fitted inhibition curve with a large enough effect; inconclusive = small, poorly fitted or top-dose-only effect, or another doubt; inactive = no such curve, though single readings can be large or run the other way. Potencies of inconclusive entries are left out as doubtful fits.
# Assay: Primary qHTS for delayed death inhibitors of the malarial parasite plastid, 48 hour incubation
# Settings: P. falciparum luciferase growth in erythrocytes; series mostly up to 28.7 µM; activity change, negative = inhibition: at the top concentration
# In short: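 Here the parasites carry a stable luciferase gene and grow inside erythrocytes in Albumax-based RPMI medium with compound for one erythrocytic cycle. Activity is scored as loss of luminescent signal.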
# % is set by controls: 0 for no effect and ±100 for the full control effect; potency is the fitted concentration of half-maximal effect; tags give direction and shape of the fitted curve.
Structure (SMILES),"activity change, negative = inhibition",Potency
Cc1c(Cl)cccc1NC(=S)NNS(=O)(=O)c1ccc([N+](=O)[O-])cc1,inactive: -13.9%,
NNC(=O)CN1C(c2ccccc2Br)=Nc2ccc(Br)cc2C1c1ccccc1 (centres undefined),,"inconclusive [inhibitor, partial curve]"
N#Cc1c(-c2cccs2)cc(C2CC2)nc1SCC(N)=O,inactive: 11.6%,
CC(C(=O)Nc1ccccc1-c1ccccc1)N1CCN(C(=O)c2ccccc2)CC1 (centres undefined),,"inconclusive [inhibitor, partial curve]"
CC1(C)CC(=O)C=C(NCc2cccnc2)C1,inactive: 12.8%,
Oc1ccc(C23CC4CC(CC(C4)C2)C3)cc1O,,active: 5.22 µM
CN1CCCN(Cc2nc(-c3ccc(Cl)cc3)no2)CC1,inactive: 27%,
COc1ccc(-n2ncc3c2CC(C)(C)CC3NC(=O)c2ccoc2C)cc1 (centres undefined),,"inconclusive [inhibitor, partial curve]"
Nc1c(C(=O)Nc2ccccc2F)sc2nc(-c3ccco3)ccc12,inactive: 110%,
O=[N+]([O-])c1ccc(O)c(/C=N/Nc2ccc(Cl)nn2)c1,,active: 0.415 µM
Cn1c(=O)c(=O)n(C)c2cc(S(=O)(=O)CCC(=O)Nc3ccc(C(F)(F)F)cc3)ccc21,,"inconclusive [inhibitor, single point]"
CC1(C(=O)NCc2ccc(Cl)c(Cl)c2)Oc2cccnc2NC1=O (centres undefined),,"inconclusive [inhibitor, single point]"
Cc1ccc(C(=O)CCC(=O)OCC(=O)N2c3ccccc3NC(=O)C2(C)C)cc1,inactive: 10.4%,
CCOC(=O)c1ccc(Nc2nc(-c3cccnc3)nc3ccccc23)cc1,,active: 5.86 µM
O=C(CCSc1ccc(Cl)cc1)N1CCN(S(=O)(=O)c2ccccc2)CC1,,"inconclusive [inhibitor, single point]"
COC(=O)CCC(=O)OC1(C)C(=O)C=C2C=C(C3CC3)N(Cc3ccc(OC)cc3)C=C2C1=O (centres undefined),,"inconclusive [inhibitor, partial curve]"
CCOC(=O)N1CCN(C(=O)CSC2=NS(=O)(=O)c3cc(F)ccc3N2)CC1,,"inconclusive [inhibitor, single point]"
O=C(Nc1ccccc1N1CCOCC1)c1ccc2c(c1)C(=O)N(Cc1ccncc1)C2=O,,"inconclusive [inhibitor, partial curve, poor fit]"
Cc1cc(OCC(=O)NCCCN2CCOCC2)c2c(C)cc(=O)oc2c1,inactive: 23.2%,
Cc1ccc(/C=C2\SC(=O)N(CCNC(=O)C3CSC4(C)CCC(=O)N34)C2=O)cc1 (centres undefined),,"inconclusive [inhibitor, single point]"
Cc1ccc(NC(=O)Cc2cn(C)c3ccccc23)cc1F,,"inconclusive [inhibitor, single point]"
O=C(COc1ccccc1F)NNC(=O)c1ccc2c(=O)n3c(nc2c1)CCC3,inactive: 1.74%,
CCC(=O)Nc1ccc(NC(=S)NC(=O)/C=C/c2ccccc2)cc1,inactive: 9.59%,
O=S(=O)(NCCN1CCOCC1)c1ccc2c(c1)OCCO2,inactive: -16.1%,
COC(=O)CCNC(=O)CCc1ccc(S(=O)(=O)N2CCCCCC2)cc1,,"inconclusive [inhibitor, single point]"

Structure (SMILES),"activity change, negative = inhibition",Potency
COCCN(C(=O)CCc1ccc(OC)cc1)c1nnc(-c2ccncc2)s1,inactive: 10.6%,
NNC(=O)CN1C(c2ccc(Br)cc2)=Nc2ccc(Br)cc2C1c1ccccc1 (centres undefined),,active: 10.4 µM
Cn1ccc(/C=N/N=C2/NC(=O)CS2)n1,inactive: -10.6%,
CCCNC(=O)c1ccccc1NC(=O)c1ccccc1N(C)S(=O)(=O)c1ccc(C)cc1,,active: 8.28 µM
COc1ccc(S(=O)(=O)Nc2cccc(SC)c2)cc1OC,,"inconclusive [inhibitor, partial curve, poor fit]"
CCSc1nnc(-c2cnn(-c3ccccc3)c2-n2cccc2)n1C,,active: 10.4 µM
Cc1[nH]c2ccccc2c1[C@H]1[C@@H](CC#N)C1(C)C,,"inconclusive [inhibitor, partial curve, poor fit]"
Nc1c(C(=O)Nc2ccccc2)c2nc3ccccc3nc2n1CCCN1CCOCC1,,"inconclusive [inhibitor, single point]"
CN1CCN(c2ncnc3scc(-c4ccccc4Cl)c23)CC1,,"inconclusive [inhibitor, single point]"
O=C(Nc1c(C(=O)N2CCN(c3ccccn3)CC2)oc2ccccc12)c1cccc([N+](=O)[O-])c1,,"inconclusive [inhibitor, partial curve]"
C=CCn1c(SCC(=O)Nc2cccc3ccccc23)nnc1-c1cnccn1,,"inconclusive [inhibitor, full curve, poor fit]"
O=c1ccc(-c2n[nH]c(=S)n2-c2ccc(F)c(Cl)c2)n[nH]1,inactive: -18.3% [at 5.75 µM],
O=C(CCN1CCc2ccccc2C1)Nc1ccccc1,,"inconclusive [inhibitor, single point]"
Cc1cc(NC(=O)c2ccccc2F)n(-c2nc3ccccc3[nH]2)n1,inactive: -79.4%,
CCCn1c(N)c(C(=O)CN(C)CC(=O)Nc2ccccc2CC)c(=O)[nH]c1=O,inactive: -11.9%,
CCOc1ccc(C(=O)Nc2ccccc2N2CCOCC2)cc1,,"inconclusive [inhibitor, full curve, poor fit]"
Fc1ccc(/C=N\Nc2cccc(F)c2)cc1,inactive: 8.96%,
CCc1nc2c(c(=O)c3ccccc3n2C)c(=O)n1CCc1ccc(OC)cc1,inactive: -7.44%,
CC(O)[C@H]1CN=C(N)N1CCc1cc(C(F)(F)F)cc(C(F)(F)F)c1 (some centres undefined),,"inconclusive [inhibitor, single point]"
Clc1ccc(COC(Cn2ccnc2)c2ccc(Cl)cc2Cl)cc1 (centres undefined),,active: 3.79 µM and active: 2.08 µM
COc1ccc2c(c1OC)C(=O)OC2C1c2cc3c(cc2CCN1C)OCO3 (centres undefined),inactive: 12.7%,
Cc1nnc(SCc2ccccc2F)n1NCc1cccs1,inactive: 28.9%,
O=C(c1nn2c(C(F)(F)F)cc(-c3ccccc3)nc2c1Cl)N1CCN2CCCC2C1 (centres undefined),,"inconclusive [inhibitor, partial curve, poor fit]"
Cc1ccc(NC(=O)c2cccc(S(=O)(=O)N3CCCc4ccccc43)c2)nc1,,active: 4.15 µM
COc1ccc(C(C)n2c(C)c3c(C)nnc(C)c3c2C)cc1 (centres undefined),,"inconclusive [inhibitor, partial curve, poor fit]"

Structure (SMILES),"activity change, negative = inhibition",Potency
Cc1ccc2nc(Nc3ccc(Cl)cc3)c3nncn3c2c1,,"inconclusive [inhibitor, single point]"
Cc1oc2cc(O)cc(C)c2c(=O)c1-c1cnn(-c2ccccc2)c1,,active: 13.1 µM
COc1ccc(OCc2cc(C(=O)NCCCc3ccccc3)no2)c(Cl)c1,,"inconclusive [inhibitor, partial curve, poor fit]"
O=C(Nc1nc2ccccc2s1)C1=NN(c2ccccc2)C(=O)CC1,inactive: -17.2%,
Cc1cccc(C)c1OCc1nnc(NC(=O)CSc2ccc(Cl)cc2)s1,inactive: 9.6%,
Cc1ccc(NC(=O)c2sc3ncn(CC(=O)N4CCOCC4)c(=O)c3c2C)c(Br)c1,inactive: 17.8%,
O=c1c2ccccc2[nH]c(=S)n1CCN1CCCC1,inactive: -4.07%,
COCCN=C1Sc2nc3ccc(C)cc3cc2CN1Cc1cccs1,inactive: 0%,
O=S1(=O)C=C(SCc2ccc(F)cc2)Nc2ccccc21,,"inconclusive [inhibitor, single point]"
Nc1ccc2ncccc2c1,,"inconclusive [inhibitor, partial curve, poor fit]"
CCOc1ccc(-n2c(=S)sc3c(=O)n(-c4ccccc4)c(SCC(=O)O)nc32)cc1,,"inconclusive [inhibitor, full curve, poor fit]"
C=CCN(C(=O)Cn1ncc2c1-c1cc(C)ccc1OC2)c1ccccc1,,"inconclusive [inhibitor, single point]"
COc1cc(OC)cc(C(=O)OCC(=O)N(C)c2ccccc2)c1,inactive: 8.49%,
O=C(c1ccc(S(=O)(=O)c2ccccc2Cl)c([N+](=O)[O-])c1)N1CCN(Cc2ccccc2)CC1,,"inconclusive [inhibitor, partial curve, poor fit]"
O=C(COc1ccccc1)Nc1cccc(S(=O)(=O)N2CCCC2)c1,inactive: 38.9%,
Cc1ccc2nc(NC(=O)CSCC(=O)OCC(=O)c3ccccc3)sc2c1,,"inconclusive [inhibitor, partial curve, poor fit]"
CC(C)CSc1oc(-c2ccco2)nc1S(=O)(=O)c1ccccc1,inactive: -25.4%,
O=C(c1ccc(-n2c(SCc3cccc(F)c3)nc3ccccc3c2=O)cc1)N1CCOCC1,,"inconclusive [inhibitor, single point]"
Cc1c(NC(=O)Nc2ccc3c(c2)OCO3)c(=O)n(-c2ccccc2)n1C,inactive: 17.7%,
COc1ccccc1NC(=O)CCC(=O)OCc1ccc([N+](=O)[O-])cc1,,"inconclusive [inhibitor, single point]"
Cc1nnc(N/N=C/c2c(O)n(-c3cccc(C(F)(F)F)c3)c(=O)c3ccccc23)[nH]c1=O,,active: 6.57 µM
CC1CCc2c(sc3nc(C(C)(C)C)nc(N4CCN(C(=O)CCl)CC4)c23)C1 (centres undefined),inactive: -56.2%,
COc1ccc2sc(N(CCCN(C)C)C(=O)c3ccc(S(=O)(=O)N(C)C4CCCCC4)cc3)nc2c1,,"inconclusive [inhibitor, single point]"
Cc1ccc2[nH]c(CCN(C)C)c(CN3CCOCC3)c2c1,,active: 13.1 µM
